The other results are listed elsewhere or left out. The main result of the screen is listed elsewhere. These columns were measured beside it and carry no call.
Test: enhancers of HSV replication in host cells, fold increase, host cell viability (AID 1956); further: tested in PC3 cells
Conditions: HSV replication augmentation in cells; fold increase: measured here: primary screen fold increase 10 uM, at 10 µM, stronger effect = higher value; viability: measured here: host cell viability series, at 25 µM, stronger effect = lower value
`COc1ccc(/C=C2\CC/C(=C\c3ccc(OC)cc3OC)C2=O)c(OC)c1` gave a fold increase of 2.3. `CN(C)c1ccc(/C=C/C=C2/SC(=S)N(c3ccccc3)C2=O)cc1` gave a fold increase of 1.96 and a viability of 78.2%. `Cc1ccc(NC(=O)CSc2nnc(-c3cccnc3)n2-c2ccc(C)cc2)cc1` gave a fold increase of 1.12. `CCc1ccc(C(=O)NNc2ccc(C)c(Cl)c2)cc1` gave a fold increase of 1.4 and a viability of 96.4%. `CCOC(=O)CC(=O)CSc1nc(-c2ccccc2)cc(-c2ccccc2)c1C#N` showed a fold increase of 2.15 and a viability of 98.7%. With `Cc1cc(C(F)(F)F)c(C#N)c(SCC(=O)Nc2nc3ccccc3s2)n1` the fold increase was 2.16. For `CCOC(=O)Cc1csc(/N=C/c2c(O)n(-c3ccc(C)cc3C)c(=O)c3ccccc23)n1`, the fold increase was 1.9 and the viability was 92.9%. Molecule `CCn1nc(-c2ccccc2)c2nc3ccccc3nc21` has a fold increase of 2.4 and a viability of 98.1%. Work on `CCCN1C(=O)/C(=C\C=C2\N(CC)c3ccccc3C2(C)C)SC1=S` yielded a fold increase of 9.15 and a viability of 94.4%. Molecule `CCC[C@@H]1C[C@@]1(CCC)[C@@H](NC(=O)c1ccccc1)c1ccc(C(=O)OC)cc1` has a fold increase of 1.52 and a viability of 97.4%. `O=C(COC(=O)c1ccc[nH]c1=O)NC1CCCCC1` showed a fold increase of 1.38 and a viability of 109%. For `N#C/C(=C\c1ccc(N2CCOCC2)o1)C(=O)NCC1CCCO1` (stereo unspecified), the fold increase was 2.23. `CCOc1cc(/C=C2/SC(=S)N(CC(=O)O)C2=O)ccc1OC(=O)c1cccs1` gave a fold increase of 1.91 and a viability of 92.8%. `COc1cc(OC)c(OC)cc1/C=C1\Oc2cc(OS(C)(=O)=O)ccc2C1=O` showed a fold increase of 1.79 and a viability of 86.2%. With `CCN(CC)CCNC(CC(=O)Nc1ccc(Cl)cc1Cl)C(=O)O` (stereo unspecified) the fold increase was 1.41 and the viability was 92.6%. With `O=C(CSc1nnc2n1CCCN2)c1ccccc1` the fold increase was 1.36 and the viability was 99.7%. Work on `CC(C)COC(=O)C1C2C=CC3(CN(C(C)c4ccc(Br)cc4)C(=O)C13)O2` (stereo unspecified) yielded a fold increase of 1.42 and a viability of 98.2%. With `CN(c1nc2nonc2nc1NC1CC1)C1CCOC1` (stereo unspecified) the fold increase was 1.35 and the viability was 99.1%. `Cn1cc(/C=N\O)nc2c(=O)n(-c3ccccc3)c(=O)nc1-2` showed a fold increase of 2.57 and a viability of 104%. Work on `Cc1sc2nc(COC(=O)c3ccc(N4CCCC4)c([N+](=O)[O-])c3)[nH]c(=O)c2c1C` yielded a fold increase of 1.5 and a viability of 94.5%. For `CC1(C)Cc2ccccc2C2CC(O)C(=O)N21` (stereo unspecified), the fold increase was 1.65 and the viability was 91.4%. `Cc1ccc(F)cc1NC(=O)N1c2ccccc2NC(=O)CC1C` (stereo unspecified) showed a fold increase of 1.32. Molecule `CCOc1cc(/C=C(/C#N)C(=O)Nc2ccc(O)cc2)cc(Br)c1O` has a fold increase of 2.62 and a viability of 44.3%. `COc1cc(/C=C2\NC(=S)N(C)C2=O)ccc1O` showed a fold increase of 1.4 and a viability of 94.5%. Work on `CC(=Nc1ccc(C)cc1C)c1sc2ccccc2c1O` yielded a fold increase of 1.51. `COc1cc(/C=C/C(=O)C2C(=O)C=C(C)OC2=O)cc(OC)c1O` (stereo unspecified) gave a fold increase of 1.78 and a viability of 95.5%. For `Cc1ccc(N2C(=O)c3cccc4c(N)ccc(c34)C2=O)c2cccnc12`, the fold increase was 9.47 and the viability was 41.8%. In the case of `O=C(CN(Cc1ccccc1)C(=O)CSc1nnc(COc2ccccc2)o1)NC1CCCC1`, the fold increase was 1.26. In the case of `Cc1csc(SC(C)C(=O)NCc2ccc3c(c2)OCO3)n1` (stereo unspecified), the fold increase was 1.38 and the viability was 93.2%. With `COc1cc(C2C(C#N)=C(N)OC3=C2C(=O)CCC3)c([N+](=O)[O-])cc1OC` (stereo unspecified) the fold increase was 1.35. In the case of `O=C(c1ccc(Cl)c([N+](=O)[O-])c1)N1CCN(C(=O)c2ccco2)CC1`, the fold increase was 1.6 and the viability was 96.4%. With `O=C(/C=C/c1ccc(N2CCC(c3ccccc3)=N2)cc1)c1ccccc1` the fold increase was 9.36 and the viability was 90.4%. `Brc1ccc(C2=CC(c3cccs3)n3ncnc3N2)cc1` (stereo unspecified) gave a fold increase of 7.86 and a viability of 81.8%. With `COc1ccccc1N1C(=O)C2C(C(=O)c3ccccc3)=NN(c3ccccc3OC)C2C1=O` (stereo unspecified) the fold increase was 2.07 and the viability was 96.2%. For `Cc1nn(C)cc1N1C(=O)c2cccc3c(N)ccc(c23)C1=O`, the fold increase was 9.53. With `N#CC1=C(N)Oc2cc(O)ccc2C1c1cccs1` (stereo unspecified) the fold increase was 2.74 and the viability was 85.7%. Work on `CCN1CCN(C(c2cccs2)C(C)NC(=O)CC(C)C)CC1` (stereo unspecified) yielded a fold increase of 1.39. Work on `CCOC(=O)C1=C(N)Oc2c(oc(CO)cc2=O)C1c1ccc(F)c(F)c1` (stereo unspecified) yielded a fold increase of 1.4 and a viability of 87.5%. `CC(=O)c1ccc(NC(=O)C(C)OC(=O)C(C)Oc2cccc(C)c2)cc1` (stereo unspecified) gave a fold increase of 1.35 and a viability of 98.7%. In the case of `CCO/C(C)=C1/SC(=S)NC1=O`, the fold increase was 1.56 and the viability was 97.6%. `CC(=O)Oc1c(Cl)cc(Cl)cc1/C=C/c1ccc2ccccc2n1` gave a fold increase of 1.89 and a viability of 85.9%. For `Cc1cc[n+](-c2[nH]c(=O)sc2/C=N/NC([S-])=Nc2ccccc2)cc1`, the fold increase was 1.45 and the viability was 94.1%. In the case of `C=CCN1C(=O)[C@]2(c3ccccc31)C1CCCC=C1C(C#N)=C(N)C2(C#N)C#N` (stereo partly specified), the fold increase was 1.56 and the viability was 94.8%. Molecule `Cc1ccc(NC2=C(C(=O)c3ccccc3)N(C)S(=O)(=O)c3ccccc32)cc1` has a fold increase of 1.16. Work on `C=CCN1C(=O)CS/C1=N\S(=O)(=O)c1ccc(Cl)cc1` yielded a fold increase of 1.59. Work on `O=C(COC(=O)c1ccc(S(=O)(=O)NCc2ccco2)cc1)Nc1ccc(OC(F)F)cc1` yielded a fold increase of 1.16. `CCC1CCCCN1C(=O)CSc1nnc(-c2ccc(OC)cc2)o1` (stereo unspecified) gave a fold increase of 1.33 and a viability of 88.9%. Molecule `O=C(c1ccc(-c2ccccc2)cc1)c1ccc([N+](=O)[O-])cc1` has a fold increase of 1.4 and a viability of 105%. Work on `Cc1ccc(-c2ccc(/C=C(\C#N)C(=O)Nc3cc(C)nn3-c3ccccc3)o2)cc1` yielded a fold increase of 1.38. For `CN1CCc2c(sc3c2C(=O)NC(c2cccs2)N3)C1` (stereo unspecified), the fold increase was 1.66 and the viability was 93.7%. Molecule `COc1c(Cl)ccc(Cl)c1C(=O)NC(=O)N1CCOCC1` has a fold increase of 1.36 and a viability of 96.6%. `O=S(=O)(c1cccs1)N1CN(Cc2ccco2)c2nc3ccccc3nc21` gave a fold increase of 1.72 and a viability of 96.7%. With `CN1CCCNc2nc3ccccc3nc21` the fold increase was 1.34 and the viability was 99.1%. For `CC1=C(C#N)C(=O)OC(C)(C)C1`, the fold increase was 1.38 and the viability was 103%. With `O=c1[nH]c2ccc([N+](=O)[O-])cc2nc1/C=C(\O)c1ccccc1` the fold increase was 1.33 and the viability was 85%. `COC(/C=C/Nc1ccc(C)c(C)c1)=C(C#N)C#N` gave a fold increase of 1.4 and a viability of 95.3%. `CCCCCCN1C=CC(=C/C=C(\C#N)C(=O)OCC)C=C1` gave a fold increase of 6.08 and a viability of 96.7%. In the case of `COc1cc(/C=c2\sc3n(c2=O)C(c2ccccc2)C(c2ccccc2)=NN=3)ccc1O` (stereo unspecified), the fold increase was 1.72 and the viability was 89.7%. In the case of `Cc1n[nH]c(C)c1N1C(=O)c2cccc3c(Br)ccc(c23)C1=O`, the fold increase was 4.32 and the viability was 100%. Work on `N#C/C(=C(/O)c1ccc([N+](=O)[O-])o1)c1nc2ccccc2[nH]1` yielded a fold increase of 15.3 and a viability of 34.7%. `Cc1ccnc(N2C(=O)c3cccc4c([N+](=O)[O-])ccc(c34)C2=O)c1` showed a fold increase of 2.44 and a viability of 2.67%. Work on `O=C1c2cccc3c(O)ccc(c23)C(=O)N1Cc1ccccc1` yielded a fold increase of 4.52 and a viability of 97.6%. In the case of `CCCCOc1ccc(C2OC34CCCCC3C(C#N)(C#N)C2(C#N)C(=N)O4)cc1` (stereo unspecified), the fold increase was 1.44 and the viability was 91.6%. In the case of `CC1CCN(Cc2ccc(NC(=O)C3CCN(c4nnc(-n5cccc5)s4)CC3)cc2)CC1`, the fold increase was 1.35 and the viability was 85.7%. With `COc1cccc(/C=N/Nc2nc3ccccc3n3cnnc23)c1O` the fold increase was 2.55. Work on `COc1cccc(C2C=C(c3ccc(OC)cc3OC)Nc3nnnn32)c1` (stereo unspecified) yielded a fold increase of 1.32 and a viability of 63.2%. In the case of `CCOCCCN1CN(S(=O)(=O)c2ccc(Cl)cc2)c2nc3ccccc3nc21`, the fold increase was 1.34 and the viability was 95.9%. For `COc1c(N2CCN(C(=S)NCc3ccccc3)C(C)C2)c(F)cc2c(=O)c(C(=O)O)cn(C3CC3)c12` (stereo unspecified), the fold increase was 1.38. For `O=C(N/N=C/c1cc([N+](=O)[O-])ccc1O)c1ccncc1`, the fold increase was 1.59 and the viability was 99.8%. In the case of `CC(=O)N1CCN(c2ccc(NCc3cccs3)cc2)CC1`, the fold increase was 1.31. For `NC(=S)NN=C(Cc1ccccc1)Cc1ccccc1`, the fold increase was 1.46. `CCN1CCN(Cc2c(O)ccc3c2O/C(=C\C=C\c2ccccc2OC)C3=O)CC1` gave a fold increase of 4.14 and a viability of 85.7%. `COc1ccc(N2C(=O)C3CCCN3C2c2ccccc2F)cc1` (stereo unspecified) gave a fold increase of 1.35 and a viability of 104%. With `Cc1ccsc1C=Nc1ccc(O)cc1` the fold increase was 1.38 and the viability was 93.5%. Work on `CC(=O)OCCn1c2nc(=O)[nH]c(=O)c-2nc2cc(C)c(C)cc21` yielded a fold increase of 8.61. With `COc1cc(/C=C2/SC(=Nc3ccc(O)cc3)NC2=O)cc(OC)c1O` the fold increase was 4.36 and the viability was 70.1%. Work on `COC(=O)c1sc2nc(CN3CCN(c4cccc(C(F)(F)F)c4)CC3)[nH]c(=O)c2c1C` yielded a fold increase of 1.81 and a viability of 103%. `COc1ccc(CNC(=S)Nc2cc(C)cc(C)c2)cc1` showed a fold increase of 1.2. Work on `Cc1ccc(C2C(C(=O)c3cccs3)=C(O)C(=O)N2c2nnc(C)s2)cc1` (stereo unspecified) yielded a fold increase of 2.6. With `CC(=O)C1=C(O)CCC1=NCCc1ccccc1` the fold increase was 1.35 and the viability was 95%. In the case of `O=S(=O)([N-]c1nc2ccccc2nc1-[n+]1ccc(-c2ccncc2)cc1)c1ccccc1`, the fold increase was 1.81 and the viability was 102%. In the case of `CCOC(=O)C1(Cc2ccc(OC)cc2)CCN(C(=O)Cc2cccnc2)CC1`, the fold increase was 1.34 and the viability was 94.5%. Molecule `CCc1ccccc1N1CC23C=CC(O2)C(C(=O)O)C3C1=O` (stereo unspecified) has a fold increase of 1.39 and a viability of 104%. `C/C(CCc1ccc2c(c1)OCO2)=N\N=C1\NC(=O)CC(C(=O)Nc2ccccc2)S1` (stereo unspecified) gave a fold increase of 1.42 and a viability of 87.8%. `CN(C)c1ccc(/C=C/C(=O)c2c(O)c3ccccc3oc2=O)cc1` gave a fold increase of 1.95 and a viability of 91%. With `Cc1[nH]c2ccccc2c1/C=N/Nc1ccc([N+](=O)[O-])cc1S(=O)(=O)Nc1ccc(Cl)cc1` the fold increase was 1.56 and the viability was 73.8%. Work on `NC(=O)c1ccc(NC(=O)COC(=O)c2c3c(nc4ccccc24)/C(=C\c2ccc4c(c2)OCO4)CCC3)cc1` yielded a fold increase of 5.75 and a viability of 46%. In the case of `O=C(NCCCl)Nc1cccc(Br)c1`, the fold increase was 1.33 and the viability was 94.3%. Work on `COc1ccc(/C=C2\C(=O)NC(=S)N2C(=O)c2ccc(F)cc2)cc1` yielded a fold increase of 7.41 and a viability of 100%. With `Cc1cc(C(=O)Nc2ccc3c(c2)OCCO3)c2ccccc2n1` the fold increase was 1.45 and the viability was 101%. Molecule `O=C(CNS(=O)(=O)c1ccccc1)Nc1ccc(C(F)(F)F)cc1` has a fold increase of 1.42 and a viability of 97.9%. Molecule `COc1ccc(/C=C/C(=O)NC(=S)NN2CCCCC2c2cccnc2)cc1` (stereo unspecified) has a fold increase of 1.39 and a viability of 97%. In the case of `Cc1ccc(-c2nc(NC(=O)CSc3cc(C)c4ccccc4n3)ns2)cc1`, the fold increase was 1.45 and the viability was 98.2%. For `C/C(=N\NC(=O)c1[nH]c2c([N+](=O)[O-])cc(C)cc2c1-c1ccccc1)c1cccnc1`, the fold increase was 0.99.

— PubChem BioAssay AID1956 (SRMLSC, 2009)
